# The supplement of paper PMC8728848
# Some of the results follow.
# Legend:
# Assay in all cases: glycan array binding signal (z-score within array); higher = stronger binding
# Settings in all cases: glycan notation: IUPAC condensed, linker removed
# Fuc(a1-2)Gal = target: Fuc(a1-2)Gal
# Method in brief: (§1)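 Columns mapping to the same glycan were averaged after glycan names were converted to IUPAC-condensed notation. The data come from 3228 arrays in the Consortium for Functional Glycomics database, limited to those with an available protein sequence. Binding is reported as a within-array Z-score averaged across arrays of one protein sequence and across linkers.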
# Fuc(a1-2)Gal(b1-3)GalNAc = target: Fuc(a1-2)Gal(b1-3)GalNAc
# Method in brief: as §1
# [1] = target: Fuc(a1-2)Gal(b1-3)GalNAc(a1-3)[Fuc(a1-2)]Gal(b1-4)Glc
# Method in brief: as §1
# [2] = target: Fuc(a1-2)Gal(b1-3)GalNAc(a1-3)[Fuc(a1-2)]Gal(b1-4)GlcNAc
# Method in brief: as §1
# [3] = target: Fuc(a1-2)Gal(b1-3)GalNAc(b1-3)Gal
# Method in brief: as §1
# [4] = target: Fuc(a1-2)Gal(b1-3)GalNAc(b1-3)Gal(a1-4)Gal(b1-4)Glc
# Method in brief: as §1
# [5] = target: Fuc(a1-2)Gal(b1-3)GalNAc(b1-4)[Neu5Ac(a2-3)]Gal(b1-4)Glc
# Method in brief: as §1
# Fuc(a1-2)Gal(b1-3)GlcNAc = target: Fuc(a1-2)Gal(b1-3)GlcNAc
# Method in brief: as §1
# [6] = target: Fuc(a1-2)Gal(b1-3)GlcNAc(b1-2)Man(a1-3)[Fuc(a1-2)Gal(b1-3)GlcNAc(b1-2)Man(a1-6)]Man(b1-4)GlcNAc(b1-4)GlcNAc
# Method in brief: as §1
# [7] = target: Fuc(a1-2)Gal(b1-3)GlcNAc(b1-2)Man(a1-3)[Fuc(a1-2)Gal(b1-3)GlcNAc(b1-2)Man(a1-6)]Man(b1-4)GlcNAc(b1-4)[Fuc(a1-6)]GlcNAc
# Method in brief: as §1
# [8] = target: Fuc(a1-2)Gal(b1-3)GlcNAc(b1-3)Gal(b1-4)Glc
# Method in brief: as §1
# [9] = target: Fuc(a1-2)Gal(b1-3)GlcNAc(b1-3)GalNAc
# Method in brief: as §1
# [10] = target: Fuc(a1-2)Gal(b1-3)GlcNAc(b1-3)[Fuc(a1-2)Gal(b1-3)GlcNAc(b1-6)]GalNAc
# Method in brief: as §1
# [11] = target: Fuc(a1-2)Gal(b1-3)GlcNAc(b1-3)[Gal(b1-4)GlcNAc(b1-6)]Gal(b1-4)Glc
# Method in brief: as §1
# [12] = target: Fuc(a1-2)Gal(b1-3)GlcNAc(b1-3)[Neu5Ac(a2-6)Gal(b1-4)GlcNAc(b1-6)]Gal(b1-4)Glc
# Method in brief: as §1
# [13] = target: Fuc(a1-2)Gal(b1-3)GlcNAc6S
# Method in brief: as §1
# [14] = target: Fuc(a1-2)Gal(b1-3)[Fuc(a1-4)]GlcNAc
# Method in brief: as §1
# [15] = target: Fuc(a1-2)Gal(b1-3)[Fuc(a1-4)]GlcNAc(b1-2)Man(a1-3)[Fuc(a1-2)Gal(b1-3)[Fuc(a1-4)]GlcNAc(b1-2)Man(a1-3)]Man(b1-4)GlcNAc(b1-4)GlcNAc
# Method in brief: as §1
# [16] = target: Fuc(a1-2)Gal(b1-3)[Fuc(a1-4)]GlcNAc(b1-2)Man(a1-3)[Fuc(a1-2)Gal(b1-3)[Fuc(a1-4)]GlcNAc(b1-2)Man(a1-6)]Man(b1-4)GlcNAc(b1-4)[Fuc(a1-6)]GlcNAc(b1-4)[Fuc(a1-6)]GlcNAc
# Method in brief: as §1
# [17] = target: Fuc(a1-2)Gal(b1-3)[Fuc(a1-4)]GlcNAc(b1-3)[Fuc(a1-3)[Gal(b1-4)]GlcNAc(b1-6)]Gal(b1-4)Glc
# Method in brief: as §1
# [18] = target: Fuc(a1-2)Gal(b1-3)[Fuc(a1-4)]GlcNAc(b1-3)[Gal(b1-4)GlcNAc(b1-6)]Gal(b1-4)Glc
# Method in brief: as §1
# [19] = target: Fuc(a1-2)Gal(b1-4)Fuc(a1-3)]GlcNAc(b1-2)Man(a1-3)[Fuc(a1-2)Gal(b1-4)[Fuc(a1-3)]GlcNAc(b1-2)Man(a1-6)]Man(b1-4)GlcNAc(b1-4)GlcNAc
# Method in brief: as §1
# Fuc(a1-2)Gal(b1-4)Glc = target: Fuc(a1-2)Gal(b1-4)Glc
# Method in brief: as §1
# Fuc(a1-2)Gal(b1-4)Glc6S = target: Fuc(a1-2)Gal(b1-4)Glc6S
# Method in brief: as §1
# Fuc(a1-2)Gal(b1-4)GlcNAc = target: Fuc(a1-2)Gal(b1-4)GlcNAc
# Method in brief: as §1
# [20] = target: Fuc(a1-2)Gal(b1-4)GlcNAc(b1-2)Man
# Method in brief: as §1
# [21] = target: Fuc(a1-2)Gal(b1-4)GlcNAc(b1-2)Man(a1-3)[Fuc(a1-2)Gal(b1-4)GlcNAc(b1-2)Man(a1-6)]Man(b1-4)GlcNAc(b1-4)GlcNAc
# Method in brief: as §1
# [22] = target: Fuc(a1-2)Gal(b1-4)GlcNAc(b1-2)Man(a1-3)[Fuc(a1-2)Gal(b1-4)GlcNAc(b1-2)Man(a1-6)]Man(b1-4)GlcNAc(b1-4)[Fuc(a1-6)]GlcNAc
# Method in brief: as §1
# [23] = target: Fuc(a1-2)Gal(b1-4)GlcNAc(b1-2)[Fuc(a1-2)Gal(b1-4)GlcNAc(b1-4)]Man(a1-3)[Fuc(a1-2)Gal(b1-4)GlcNAc(b1-2)Man(a1-6)]Man(b1-4)GlcNAc(b1-4)GlcNAc
# Method in brief: as §1
# [24] = target: Fuc(a1-2)Gal(b1-4)GlcNAc(b1-3)Gal(b1-4)GlcNAc
# Method in brief: as §1
# [25] = target: Fuc(a1-2)Gal(b1-4)GlcNAc(b1-3)Gal(b1-4)GlcNAc(b1-2)Man(a1-3)[Fuc(a1-2)Gal(b1-4)GlcNAc(b1-3)Gal(b1-4)GlcNAc(b1-2)Man(a1-6)]Man(b1-4)GlcNAc(b1-4)GlcNAc
# Method in brief: as §1
# [26] = target: Fuc(a1-2)Gal(b1-4)GlcNAc(b1-3)Gal(b1-4)GlcNAc(b1-3)Gal(b1-4)GlcNAc
# Method in brief: as §1
# [27] = target: Fuc(a1-2)Gal(b1-4)GlcNAc(b1-3)GalNAc
# Method in brief: as §1
# [28] = target: Fuc(a1-2)Gal(b1-4)GlcNAc(b1-3)[Fuc(a1-2)Gal(b1-4)GlcNAc(b1-6)]GalNAc
# Method in brief: as §1
# [29] = target: Fuc(a1-2)Gal(b1-4)GlcNAc(b1-3)[Fuc(a1-3)[Gal(b1-4)]GlcNAc(b1-6)]Gal(b1-4)Glc
# Method in brief: as §1
# [30] = target: Fuc(a1-2)Gal(b1-4)GlcNAc(b1-6)GalNAc
# Method in brief: as §1
# [31] = target: Fuc(a1-2)Gal(b1-4)GlcNAc6S
# Method in brief: as §1
binder,measurement,setting,value
"MGL (Homo sapiens), Q8IUN9 (protein) MTRTYENFQYLENKVKVQGFKNGPLPLQSLLQRLCSGPCHLLLSLGLGLLLLVIICVVGFQNSKFQRDLVTLRTDFSNFTSNTVAEIQALTSQGSSLEETIASLKAEVEGFKQERQAGVSELQEHTTQKAHLGHCPHCPSVCVPVHSEMLLRVQQLVQDLKKLTCQVATLNNNASTEGTCCPVNWVEHQDSCYWFSHSGMSWAEAEKYCQLKNAHLVVINSREEQNFVQKYLGSAYTWMGLSDPEGAWKWVDGTDYATGFQNWKPGQPDDWQGHGLGGGEDCAHFHPDGRWNDDVCQRPYHWVCEAGLGQTSQESH",glycan array binding signal (z-score),Fuc(a1-2)Gal,-0.232
same,glycan array binding signal (z-score),Fuc(a1-2)Gal(b1-3)GalNAc,-0.248
same,glycan array binding signal (z-score),[1],-0.246
same,glycan array binding signal (z-score),[2],-0.24
same,glycan array binding signal (z-score),[3],-0.223
same,glycan array binding signal (z-score),[4],-0.242
same,glycan array binding signal (z-score),[5],-0.044
same,glycan array binding signal (z-score),Fuc(a1-2)Gal(b1-3)GlcNAc,-0.251
same,glycan array binding signal (z-score),[6],-0.224
same,glycan array binding signal (z-score),[7],-0.222
same,glycan array binding signal (z-score),[8],-0.251
same,glycan array binding signal (z-score),[9],-0.248
same,glycan array binding signal (z-score),[10],-0.239
same,glycan array binding signal (z-score),[11],-0.248
same,glycan array binding signal (z-score),[12],-0.245
same,glycan array binding signal (z-score),[13],-0.178
same,glycan array binding signal (z-score),[14],-0.244
same,glycan array binding signal (z-score),[15],-0.234
same,glycan array binding signal (z-score),[16],-0.238
same,glycan array binding signal (z-score),[17],-0.245
same,glycan array binding signal (z-score),[18],-0.242
same,glycan array binding signal (z-score),[19],-0.219
same,glycan array binding signal (z-score),Fuc(a1-2)Gal(b1-4)Glc,-0.231
same,glycan array binding signal (z-score),Fuc(a1-2)Gal(b1-4)Glc6S,-0.246
same,glycan array binding signal (z-score),Fuc(a1-2)Gal(b1-4)GlcNAc,-0.247
same,glycan array binding signal (z-score),[20],-0.246
same,glycan array binding signal (z-score),[21],-0.229
same,glycan array binding signal (z-score),[22],-0.209
same,glycan array binding signal (z-score),[23],-0.281
same,glycan array binding signal (z-score),[24],-0.247
same,glycan array binding signal (z-score),[25],-0.238
same,glycan array binding signal (z-score),[26],-0.24
same,glycan array binding signal (z-score),[27],-0.249
same,glycan array binding signal (z-score),[28],-0.212
same,glycan array binding signal (z-score),[29],-0.237
same,glycan array binding signal (z-score),[30],3.85
same,glycan array binding signal (z-score),[31],-0.256
